# Results reported in the supplement of paper PMC3334620.
# In all, about 33,000 sequences were measured (“E-score (-0.5 to 0.5)”: median about -0.013, highest 2% from about 0.3 on). The list shows a part of the results.
# Biological target: T1, Msn1 (UniProt P22148)
# T1 sequence: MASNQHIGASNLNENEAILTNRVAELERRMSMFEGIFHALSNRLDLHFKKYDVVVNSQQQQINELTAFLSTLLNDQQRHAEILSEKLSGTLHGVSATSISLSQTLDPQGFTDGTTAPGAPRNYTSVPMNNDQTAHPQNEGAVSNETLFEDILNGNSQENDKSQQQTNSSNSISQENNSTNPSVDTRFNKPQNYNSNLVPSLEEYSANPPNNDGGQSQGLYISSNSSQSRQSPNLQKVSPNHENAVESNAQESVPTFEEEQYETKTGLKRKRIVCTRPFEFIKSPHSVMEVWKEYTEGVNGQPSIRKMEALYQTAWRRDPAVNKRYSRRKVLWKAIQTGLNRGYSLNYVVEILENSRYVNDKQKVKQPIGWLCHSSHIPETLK
# Assay: PBM E-score (8-mer binding enrichment) (E-score (-0.5 to 0.5)); higher = stronger / more preferred TF binding; most listed sequences are background and not binding sites
# Conditions: protein concentration: 200 nM; construct: GST-full length
# Procedure: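 Universal 'all 10-mer' protein binding microarrays (Agilent AMADID 015681) probed with GST-tagged S. cerevisiae TFs (full-length or DBD) made by in vitro transcription/translation (PURExpress), about 100-200 nM. Bound TF was detected with fluorescent anti-GST. Each ungapped 8-mer (which stands for itself and its reverse complement) is scored by the PBM enrichment score (E-score), a modified Wilcoxon-Mann-Whitney statistic from -0.5 to +0.5, computed with the Universal PBM Analysis Suite. Scale: above 0.35 generally sequence-specific binding.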
row,Sequence,PBM E-score
1,ATGAAAAT,0.211
2,TAAGAGGA,-0.0597
3,ATGGCCAC,-0.296
4,CAGTTCAG,-0.18
5,AAAATTAC,0.134
6,CTCACCCC,-0.243
7,CGCCGCGA,0.082
8,GTTAACTA,-0.00919
9,CGTCCCAA,0.218
10,CATCTCCC,-0.122
11,CTCAAGAC,0.0771
12,ACCTATAG,-0.206
13,AGGCCATG,0.0901
14,GCAAAAAC,0.127
15,CCTCATAC,0.0462
16,TCAGTAAA,0.151
17,AGTGACTA,0.0812
18,ACAGATGC,0.0152
19,CGACTGCA,-0.0411
20,AACCGACT,0.0458
21,AACAAACC,0.155
22,CGTGCAAA,0.0124
23,CCAGATCC,-0.293
24,GGCAAACA,0.076

row,Sequence,PBM E-score
1,ATATGAGA,0.0596
2,CCCATTAG,-0.329
3,ACTAATTG,0.16
4,GAGAGTGC,-0.181
5,GAACGTGC,-0.217
6,ACGTCGAG,-0.0605
7,CGACGTAC,-0.0473
8,CGTAGACG,0.0263
9,GCGTGTAA,-0.056
10,AACAACTC,-0.0213
11,CGCCCTAC,-0.291
12,ACGGTCCG,-0.0941
13,GGGCACAA,-0.131
14,GTCGAAGA,0.0857
15,CTCTAGAA,0.0416
16,GGGAGAGA,-0.238
17,CCTTGGGC,-0.279
18,AGCTTTAG,-0.026
19,TCATATAA,0.0946
20,ATCGAATA,-0.0288
21,AGCTGCCT,-0.244
22,CCACCAGA,-0.257
23,TAAATTCA,0.00407
24,GTACATCA,0.146

row,Sequence,PBM E-score
1,AACCGGTA,-0.0654
2,ACCGTGTA,0.0262
3,TAAGCTGA,-0.0597
4,CAATCCAC,-0.0564
5,CTGAAGAA,-0.16
6,CTCACCAC,-0.0522
7,TAACCTAA,0.00422
8,GAATTGGC,-0.278
9,ATAAACAT,0.125
10,GTATGCAA,-0.00101
11,ATAGATCA,0.147
12,AGTTAGAC,0.124
13,GGTAGCAA,-0.098
14,TATCTAGA,-0.0296
15,AGTCAGAA,-0.0729
16,CTGGCAAC,0.0713
17,ATAACACA,0.0274
18,ATTGTTGA,0.0126
19,AAGTAGTG,-0.0319
20,ATGCAAGC,-0.106
21,AGGTAGCC,-0.0374
22,GAAGCAGC,-0.0921
23,CATATTGC,-0.129
24,CATCGGCC,-0.0617

row,Sequence,PBM E-score
1,CATGATGG,-0.158
2,ACAGCCTG,-0.0349
3,CGGCACAC,0.0246
4,ACGCTACT,-0.113
5,ATTTATAA,0.322
6,AGATCATC,-0.0974
7,CAGGCAGC,-0.15
8,ATCTAATC,0.037
9,CTAGTAAG,0.0281
10,ACAGAAGG,0.00522
11,CTTGAGTA,-0.0328
12,CCGGATGC,-0.0974
13,ATACTCTG,0.0822
14,ATAGTTGA,0.0511
15,AAGGAGAA,-0.162
16,CTTGATTC,0.0671
17,ACCCAACA,-0.179
18,ACGAAGAG,-0.0472
19,AGAGCTAA,-0.0343
20,CATAACTA,0.116
21,GAGGAGAA,-0.216
22,CAGGGAGC,-0.175
